# The supplement of paper PMC10338343
# ± gives the standard deviation. The list shows a part of the results, in another mix than the full data.
# System: MIWI (PIWIL1) piRISC loaded with L1MC piRNA (30 nt)
# Assay: pre-steady-state target cleavage rate (min^-1); MIWI and MILI are mouse PIWI proteins and EfPiwi is from a freshwater sponge; tags in brackets are library labels; higher = faster piRNA-guided slicing of the target
# Conditions: guide: L1MC piRNA 5'p-UAACUAAAUACUAUGCAAGCUGUAGGUCCU; auxiliary factor: 500 nM mouse GTSF1
# How it was run: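 Reactions were run for 0–8 or 0–960 min at 33 °C in HEPES–potassium acetate buffer, combining 1 nM active affinity-purified piRISC with one synthetic guide, […] transcribed, DNA-blocked target RNA library and, in some cases, 500 nM GTSF1 partner protein. Sequencing of uncleaved targets followed, with normalisation to depth and to weakly complementary targets. Three trials were pooled, k3 was capped at 0.0001 min^-1, and the pre-steady-state cleavage rate was taken from a burst-and-steady-state fit.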
# 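Further: 1 nM active piRISC with 0.1 nM target library at 33 °C single turnover.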
row,Sequence,pre-steady-state target cleavage rate
1,UCCACCUACAGCUUGCAUAGUAUUUAGUGA,0.465 ± 0.08
2,UCCUGCUACAGCUUGCAUUCUAUUUAGUUA,0.224 ± 0.021
3,UCCUGGAUGAGCUUGCAUAGUACUUAGUUA,0.444 ± 0.037
4,UCCACCUACAGCUUGCAUAGUAAAUAGUUA,0.426 ± 0.039
5,UCCUGGUACAGCUUGGAUAGUAUUUACUUA,0.0106 ± 0.0064
6,UCCACGUACACCUUGCAUAGUAUUUAGUUA,1.13 ± 0.036
7,UCCUGGAUGAGCUUGCAUAGAAUUUAGAAA,0.0287 ± 0.011
8,UCCACCAACAGCUUGCAUAGUAUUUACUUA,0.249 ± 0.028
9,UCCACCUACAGGUUGCAUAGUAUUAAGUUA,0.862 ± 0.1
10,AGGACCUACACCUUGCAUAGUAUUUUGUUA,0.768 ± 0.077
11,UCCUGGAUGAGCUGCAUAGUAUUUAGUUA,0.0636 ± 0.0082
12,UCCACCUACAGCUUGCAUUGUAUUUAGAUA,0.215 ± 0.025
13,UCCUGGAUGUGCUUGCAUAGUAAUUAGUUA,0.0816 ± 0.011
14,UGGACCUACAGCUUGCAUUGUAAUUAGUUA,0.45 ± 0.035
15,UCCUGGAUCAGCUUGCAUAGUUUUUAGUUA,0.266 ± 0.018
16,UCCUGGAACAGCUUGCAAAGUAUUUAGAAA,0.426 ± 0.062
17,UCCUCCUAGUCCUUGCAUAGUAUUUAGUAA,0.235 ± 0.03
18,UCCUGGAUGUCGUUGCAUAGUAUUUAGUUUA,0.022 ± 0.0057
19,UCCACCUCAGCUUGCAUAGUAUUUAGUUA,0.878 ± 0.07
20,UCCUGGUACAGGUUGCAUUGUAUUUAGUUA,0.545 ± 0.064

row,Sequence,pre-steady-state target cleavage rate
1,UCCAGCUACAGCUUGCAUAGUAUUUACUUA,0.356 ± 0.028
2,AGGACCUAGAGCUUGCAUAGUAUUUAGAAA,0.332 ± 0.051
3,AGGACCUACACCUUGCAUAGAAUUUAGUUA,0.511 ± 0.082
4,UGGACCUACUGCUUGCAUAGUAUUAAGUUA,0.597 ± 0.03
5,UCCGCCUACAGCUUGCAUAGUAUUUAGUUA,1.23 ± 0.05
6,UCCUGCUUGAGCUUGCAUAGUAUUUAGAAA,0.278 ± 0.036
7,AGGUCCUACAGGUUGCAUAGUAUUUAGUUA,0.992 ± 0.074
8,UCCUGGUAGAGCUUGCAUAGUAUUUAGAUA,0.28 ± 0.031
9,UCCUGGUACAGCUUGGAUAGAAUUUAGUUA,0.212 ± 0.059
10,UCCUGGAUCAGCUUGCAUAGUUUAUAGUUA,0.0282 ± 0.0076
11,UCCUGGAUGUGCUUGCAUAGAAUUUACUUA,0.0233 ± 0.0074
12,AGGACCUACAGCUUGCAAAGUAUUUAGUAA,0.747 ± 0.049
13,UGGACCUAGAGCUUGCAUACUAUUUAGUUA,0.218 ± 0.014
14,UCCUGGAUGAGCUUGCAUUGUAUUUAGUAA,0.27 ± 0.033
15,UCCUGGAUGUGCUUGCAUAGCAUUUAGUUA,0.119 ± 0.013
16,UCCUGGUAGAGCUAGCAUAGUAUUUAGUUA,0.569 ± 0.034
17,UCCUGGAUGUGCAUGCAUAGUAUUUAGUUA,0.13 ± 0.014
18,UCCUGCUACAGCAUGCAUAGUAUAUAGUUA,0.718 ± 0.082
19,UCCUGGUAGUCCUUGCAUAGUAUUUAGUAA,0.0379 ± 0.0095
20,UCCUGGAUCAGGUUGCAUAGUAUUUAGUUA,0.568 ± 0.028
